Results published in article PMC4242493.
The list shows a part of the results. The list includes weakly bound sequences.

target: MaxL homodimer (UniProt P61244); assay: universal protein-binding microarray (PBM); conditions: PBS-based mixture, 10 nM His-tagged protein dimer, 2% milk, 200 ng/uL BSA, 50 ng/uL salmon testes DNA, 0.02% TX-100; detection with Alexa 488 anti-His …; high values mean tight binding; most listed sequences are background and not binding sites; double strand, one strand shown
Sequence of UniProt P61244 (P61244 whole entry): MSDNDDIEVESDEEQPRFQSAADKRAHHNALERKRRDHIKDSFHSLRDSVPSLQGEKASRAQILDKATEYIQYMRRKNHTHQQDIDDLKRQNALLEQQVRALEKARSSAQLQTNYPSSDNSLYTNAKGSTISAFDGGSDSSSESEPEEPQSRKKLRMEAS

Sequence | binding signal (normalized occupancy)
CTTCTTAA | 0.0763
AACTTACT | 0.0734
ATGCGAGA | 0.0813
GAATCCAC | 0.0782
AGGACCAA | 0.069
GGCTAACC | 0.0752
ACGCGTAG | 0.0796
GAATTAGA | 0.0771
ATAAAACA | 0.0869
ATTGTGAA | 0.0788
ACTTCGGA | 0.0692
AGTCTAAG | 0.07
AGATTGGC | 0.0744
ACTGCGAC | 0.0694
TACGATCA | 0.074
TCTCTACA | 0.0764
GGATTGTA | 0.0757
CTAGACGC | 0.0727
AAAACGTT | 0.0743
AAAAGTCC | 0.0697
AACGTTTG | 0.0771
TCCAACAA | 0.0724
CGATAATC | 0.0765
TAACTCTA | 0.072
CCCCTTTC | 0.0738

Sequence | binding signal (normalized occupancy)
ACTGCATA | 0.0796
ATACTCGC | 0.0786
CAATTCGG | 0.0745
CTACAAAC | 0.0781
CAATCCCA | 0.0788
ATGGTCCC | 0.0791
CAATTCAG | 0.071
AGCATGCA | 0.114
CCGATAGG | 0.0711
GGTCGAAA | 0.0786
AGGCTTAA | 0.0695
CTGATGAA | 0.0754
GCTTCGAA | 0.0707
ATAACGCG | 0.0811
CAATCTAG | 0.0722
AGCACAAC | 0.074
TCATTTCA | 0.0827
AAGTTCAT | 0.0737
GGCCCGGA | 0.067
AGTCAGTC | 0.0716
ACTAAAAT | 0.0735
GCAGTCGA | 0.0687
CCATCCCC | 0.0807
GCTAGGCC | 0.0633
CACGCGTG | 0.17

Sequence | binding signal (normalized occupancy)
AGCGTCAG | 0.0728
ACTTGTGC | 0.0751
CCATCTAG | 0.0761
CAAGCCTC | 0.0728
AAGCACTA | 0.0755
CAGTATGA | 0.0747
CCCAGGGA | 0.0748
GGACATAA | 0.0787
TCCAGCGA | 0.0711
AAAATTTT | 0.0664
ACAAAAAG | 0.0691
CTTGACGA | 0.0698
AAGACTCT | 0.0709
CATCTGCG | 0.0794
CACTCGTA | 0.0699
CGCCTTCA | 0.0714
CACGCGGA | 0.15
TTGAGAAA | 0.0807
CCAGCGGA | 0.0737
TATGGCCA | 0.0862
ACCTACAT | 0.085
GGTTCGAA | 0.0749
ATGCACGG | 0.0875
AGTTACTG | 0.078
GCGGCGGA | 0.0664

Sequence | binding signal (normalized occupancy)
CAGCCCCC | 0.0753
ATGGGCGA | 0.0772
CGATGCCA | 0.0777
ACGGACCT | 0.0748
ATTTAGCA | 0.0739
AGTTAACT | 0.0767
GCGCTCAC | 0.0771
ACGTGAAT | 0.0824
CCTTTGTA | 0.0734
CCAGTGAA | 0.0713
CCCAATCC | 0.0749
CACCCAAC | 0.0751
ACCCAAGC | 0.0747
CACAACGA | 0.0744
AGACAGTC | 0.0718
ATTAGGCG | 0.0766
CCATGGAG | 0.0784
ACTAGCCA | 0.0701
CTACAGTC | 0.0741
CAGCTGGC | 0.0726
ATTAAACC | 0.08
ACCCGGAT | 0.0752
TACACATA | 0.0846
GAGATAAA | 0.0774
CTCGAGCC | 0.0744

Sequence | binding signal (normalized occupancy)
CGATGGAC | 0.0705
ATGCGCGC | 0.0844
AATTGGGT | 0.0727
GGATCAGA | 0.0774
GCATATCC | 0.0834
AAGGACAC | 0.0757
TTACGGAA | 0.0743
CTACTACA | 0.0787
CGCTGCCC | 0.0694
GGATTACA | 0.0779
AAGATCCG | 0.0754
GGGAGATA | 0.0827
AGGATTGC | 0.0735
CAAATTGC | 0.0713
CAGACTGC | 0.07
ATATCTTA | 0.0733
AGATCATG | 0.0913
AATCTATC | 0.08
ACTACTTC | 0.0704
AGGGATGA | 0.0811
TACCTAGA | 0.073
ATCGCCCA | 0.0796
AAGAGAAC | 0.0739
AACGTCAT | 0.0774
ACGAGCCA | 0.0776

Sequence | binding signal (normalized occupancy)
TACCAGAA | 0.0769
GCCCAACA | 0.0745
AGAGTGCA | 0.0743
GGAATGCC | 0.0756
GTCCGTAA | 0.0709
GTAACCTA | 0.0752
AATTAGAT | 0.078
GCGCCGGA | 0.0702
AAGATAAT | 0.0764
AATGCCCG | 0.0739
CAGAGGGA | 0.0668
CCCCAAGA | 0.0741
AAAAATAC | 0.0817
CTACGCCC | 0.0726
GTCGCAGA | 0.0705
CGGGTCAG | 0.0685
CGCTGGCC | 0.0737
AGGTTGCA | 0.0755
GATAACCA | 0.0823
ACTAACGC | 0.077
ACGGGTTG | 0.0743
CGCAGGAG | 0.0713
ACTCTTAC | 0.0755
GGCTCTTA | 0.0716
CCTGCACA | 0.0788

Sequence | binding signal (normalized occupancy)
ATTCTCCC | 0.0806
TAGGGTCA | 0.0753
GATCTGTA | 0.0768
CTCCATTA | 0.0776
CCCCGGGG | 0.0632
AACAATTA | 0.0779
ATCACGAA | 0.08
CCCCTCAG | 0.0775
AGTCTCAG | 0.0725
ATTAAAAT | 0.0747
TAGCGCCA | 0.0742
TCCGACAA | 0.071
CGTTACGA | 0.0742
ATCCGTTC | 0.0707
ACCCGGCA | 0.0737
TATCAGCA | 0.0749
ATACCACC | 0.0834
CAGGGAAC | 0.0737
TGACCGAA | 0.0768
ACGAAAAT | 0.0764
GACCTGTA | 0.0781
CTCATCCC | 0.0745
ACCCACCG | 0.0804
ACAAGAGG | 0.0752
ACTACCCC | 0.0796

Sequence | binding signal (normalized occupancy)
GCTTAAGA | 0.0743
CGGGTACA | 0.0783
ACCTCTGA | 0.071
AACTCAGG | 0.0684
ATACCGGA | 0.0808
CTACATCC | 0.0773
CCGTGACG | 0.0782
GCATCACC | 0.0774
GACTGGGC | 0.0696
GGTATAAC | 0.0766
ATAGGCTG | 0.0707
ATAAAGTC | 0.0808
CTACTAGC | 0.0697
ATGGTAAC | 0.0835
AGAGCGGC | 0.0689
GGCGTTTA | 0.0778
AACCTGAC | 0.0788
TAAAGACA | 0.0821
ACTCGTCT | 0.0702
AGAACCAG | 0.0721
AAACGGAT | 0.0706
TCGATCGA | 0.0683
CCGCTAAA | 0.07
CGTTTAAC | 0.077
ATTTCCCA | 0.0766

Sequence | binding signal (normalized occupancy)
ACGCCCAG | 0.0752
GCCACGCA | 0.0915
ATATGGTC | 0.0896
AACTGCGA | 0.0693
AAAAGGAT | 0.0697
AGCGCAAC | 0.0679
ATATTGGG | 0.0787
AGCTCGAT | 0.0745
AAGGTATC | 0.0767
GCTTTTAC | 0.0756
CCTCCAGC | 0.0706
CACAGTAA | 0.0703
CCTTCGAA | 0.0696
CCTTTGCG | 0.0727
GGGCGCCC | 0.0669
CAGACTAA | 0.0682
CGATACGC | 0.0818
GTGTAATA | 0.0829
ATACGATC | 0.0751
CTGCCAGC | 0.0669
GCATGCCC | 0.105
CGTCCTTA | 0.0691
CTGAACCC | 0.0732
ACCTCGAA | 0.0704
ATTACCGC | 0.0757

Sequence | binding signal (normalized occupancy)
AGGTTGTG | 0.0771
CAGTTAGG | 0.0719
ACGGTACT | 0.0723
CAGAGCTA | 0.0767
GCACAGCA | 0.0738
ACACAACC | 0.0804
AGTGATAC | 0.0753
ATCCCGGC | 0.0718
GGTATACA | 0.0795
CCAACTTC | 0.0726
CTTTTCAC | 0.0769
CTAAAAGC | 0.0718
ACTTTGTG | 0.0718
ACGTTCGA | 0.0752
CATTACAC | 0.083
GCTTAGAA | 0.0745
ACTTCACA | 0.0776
AGTAGAGC | 0.0746
CGCAGATA | 0.0755
GGAGATGA | 0.0755
ACTAAAGA | 0.0692
CAACTAAG | 0.0704
AGGTAAAC | 0.0708
AAGTTCCG | 0.0704
CACCTTGC | 0.0768

Sequence | binding signal (normalized occupancy)
GTACTTGA | 0.0753
GGGTCGGA | 0.0765
AGCATATC | 0.0822
GAGTCTCC | 0.0664
CTCAGCAG | 0.0691
GTAGATAA | 0.0803
AGACTGCG | 0.068
AGTCTAAT | 0.0747
CAGATCAA | 0.0797
AGTCATTA | 0.0788
AGTGGGAA | 0.0701
GATGGTAA | 0.0776
TGGGACAA | 0.0715
CACAGGTC | 0.0763
TCAGATAA | 0.0743
GCACGTCA | 0.0831
CATGATTA | 0.0873
AACACGTC | 0.0786
CTTCTTAC | 0.0717
CCCCAGGG | 0.0693
AGCTGTGG | 0.0743
CGACAAAC | 0.0751
CCTGCAGA | 0.0713
ATCGTCCC | 0.0769
AACCGTAG | 0.0704

Sequence | binding signal (normalized occupancy)
CTGCACAC | 0.0909
TCGACACA | 0.0806
AATTATCA | 0.0842
CAATTACG | 0.081
CCATATGA | 0.0926
GCCGCTGA | 0.0652
ACGATCCG | 0.0754
CTCTCCGC | 0.0676
GCATCGTA | 0.0732
CATCCACC | 0.0815
CGAAAACA | 0.0797
AAACGGCC | 0.0649
CGTAGATA | 0.074
AACTGCGG | 0.0712
CGGCGGCA | 0.0666
AAAGTTGA | 0.0725
CGATGCTC | 0.0773
CCACAGCA | 0.0776
ATGGGAAT | 0.0864
ATGTTATG | 0.0822
CCCTTCAC | 0.0768
GCCCTAAC | 0.0753
ACTGCTCG | 0.072
CGCAGTAA | 0.0696
ACTTGCAC | 0.0786

Sequence | binding signal (normalized occupancy)
CGTTAGCC | 0.0755
CTGATCTA | 0.072
CCAACCGC | 0.0755
CGTAAGTA | 0.0786
AATGCATT | 0.0797
ATGGTCGC | 0.0835
GGAAATCA | 0.0775
ACAGACAA | 0.0737
CACCTTTC | 0.0737
ATTGGGAC | 0.0752
GGTAGCTA | 0.0759
ATATCCCC | 0.0902
GAGTCAAA | 0.0783
CGGCAGCA | 0.0759
CATTGCTC | 0.0698
ATACGTCA | 0.0792
CACGGCAG | 0.077
CCTAGTCG | 0.0709
ACGTCTTA | 0.0796
AGTTGGAC | 0.0711
AATCACGT | 0.099
CATCCCGC | 0.0771
GGTTGCCA | 0.0746
GCCGGGTA | 0.0681
CCAGTAAG | 0.0736

Sequence | binding signal (normalized occupancy)
GAGTGGGA | 0.0757
CCGACACG | 0.0818
CCCTGAAG | 0.069
GTGGACAA | 0.0784
CAATCTTC | 0.0707
GCGTGTAC | 0.1
AAGGCGGG | 0.0744
CCTAGATC | 0.0788
AAGCAGCA | 0.0684
GTACGACA | 0.0784
CCACGTGA | 0.482
CGGCCAAC | 0.0719
GGCATCCA | 0.0782
CGTCAATC | 0.0788
AATTGACG | 0.072
TCCCTGCA | 0.078
ATATGTGG | 0.0866
GAGCAAGC | 0.0695
CCGTTCTA | 0.0701
